Consider 81 compounds from PubChem BioAssay AID1346428 (National Center for Advancing Translational Sciences (NCATS), 2018).

Out of some 48,000 compounds screened, about 1,200 (2.5%) were called active. About 2% were inconclusive and are not listed.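 Rule for the calls: active = activation of at least 60% and not above a set upper limit (about 1 call in 100 departs from these limits); inconclusive = activation of 40% to 60%, or above that upper limit; inactive = activation under 40%.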 The list shows a part of the results.

The target of the assay is Probable G-protein coupled receptor 32 (Homo sapiens) (UniProt O75388). Nature of the assay: qHTS for Agonists of Human Resolvin D1 Receptor DRV1. Note: 0% is about no effect. The settings on record: CHO-K1 GPR32 beta-arrestin PathHunter luminescence, 90 min; at 76.9 µM; active compounds read high; zero percent set by DMSO-only wells. Put shortly: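 PathHunter beta-arrestin recruitment in CHO-K1 cells stably expressing ProLink-tagged GPR32. Cells were exposed to compound for 90 min at 37 C, then chemiluminescence was read after 1 h detection at ambient temperature; DMSO served as basal control.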
UniProt O75388, sequence (O75388 whole entry, looked up): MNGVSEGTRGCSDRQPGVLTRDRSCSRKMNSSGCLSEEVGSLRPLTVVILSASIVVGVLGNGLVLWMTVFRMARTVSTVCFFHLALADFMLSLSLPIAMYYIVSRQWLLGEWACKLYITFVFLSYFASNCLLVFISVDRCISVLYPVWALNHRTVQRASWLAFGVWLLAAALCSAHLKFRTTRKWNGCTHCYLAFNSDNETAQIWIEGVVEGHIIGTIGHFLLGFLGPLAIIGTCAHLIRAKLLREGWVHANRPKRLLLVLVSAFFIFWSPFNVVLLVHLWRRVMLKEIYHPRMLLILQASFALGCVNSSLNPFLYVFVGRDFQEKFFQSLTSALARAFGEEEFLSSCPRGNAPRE
On to `COc1cccc(N2CCN(C3C(=O)c4ccccc4N3C(C)=O)CC2)c1` (stereo unspecified), for which the activation was inactive: -37.6%.

With `COc1cccc(C2C(C(=O)Nc3ccc(C)cc3C)=C(C)Nc3c(C(=O)Nc4cccc(C)c4)cnn32)c1OC` (stereo unspecified), the activation was inactive: -11.2%.

Take `CCOc1ccc(OCC)c(NC(=O)CN(C)S(=O)(=O)c2ccc3c(c2)CCCC(=O)N3)c1`: the activation was inactive: -19.7%.

Take `Cc1nnc(NS(=O)(=O)c2ccc(N)cc2)s1`: the activation was inactive: 10.6%.

On to `O=C(Cn1nc(-c2ccc(Cl)cc2)ccc1=O)NCc1ccccc1Cl`, for which the activation is inactive: -2.28%.

Take `Cc1cccc(OCC(=O)N(Cc2sccc2C)C2CCS(=O)(=O)C2)c1` (stereo unspecified): the activation is inactive: -7.72%.

In the case of `CCCNC(=O)C1CCC(Cn2c(=O)c3sccc3n(CC(=O)N3CCC(C)CC3)c2=O)CC1` (stereo unspecified), the activation is inactive: -2.91%.

Take `COc1ccc(N2CCN(C(=O)c3ccc(-c4nc(COc5ccccc5)c(C)o4)cc3)CC2)cc1`: the activation was inactive: -0.295%.

In the case of `COc1ccc(N2CCN(C(=O)c3nc(SC)ncc3Cl)CC2)cc1`, the activation was inactive: 0.787%.

As to `COc1ccc(C(C)C)cc1S(=O)(=O)NCCc1c(C)[nH]c2ccc(C)cc12`, the activation was inactive: -14.3%.

Regarding `CC(C)(C)OC(=O)N1CCC(c2c(C(=O)N3CCc4ccccc4C3)cnn2-c2ccc(F)cc2)CC1`, the activation was inactive: -8.96%.

For `Cc1ccccc1OCCn1c(CCNC(=O)C(C)(C)C)nc2ccccc21`, the activation is inactive: -12.6%.

For the compound `CC1=C(c2ccc(C)c(C)c2)S(=O)(=O)N=C1N1CCC(C(=O)NCc2ccc(C)o2)CC1`, the activation is inactive: 4.04%.

`CCc1ccc(CNC(=O)c2ccc(-c3nc(CS(=O)(=O)c4ccccc4)c(C)o3)cc2)cc1`: the activation is active: 84.3%.

For the compound `Cc1coc2c(C)c3oc(=O)c(CCC(=O)NCCc4ccc(Cl)cc4)c(C)c3cc12`, the activation was inactive: -16.6%.

Take `CC(NC(=O)CCCn1c(=O)c2cccn2c2cccnc21)c1ccccc1` (stereo unspecified): the activation was inactive: -10.7%.

Consider `CCOc1ccc(-c2nc(C#N)c(NCCCOC)o2)cc1`, for which the activation was inactive: -22.7%.

Regarding `O=C1C(=O)N(C2CCN(S(=O)(=O)c3ccc(F)cc3)CC2)CCN1Cc1ccccc1`, the activation was inactive: 15.8%.

As for `CCOC(=O)c1cccc(NC(=O)CN2C(=O)CC(C)(C)Sc3ccccc32)c1`, the activation is inactive: -10.5%.

`CCN(C(=O)c1oc2ccc(S(=O)(=O)N3CCCCCC3)cc2c1C)c1ccccc1`: the activation is inactive: -6.58%.

For the compound `Cc1ccc(-n2ncc(C(=O)NCCN3CCc4ccccc4C3)c2C2CCN(C(=O)OC(C)(C)C)CC2)cc1`, the activation was inactive: -37.3%.

`COc1ccc(CCNC(=O)CCCn2c(=O)c3ccccc3n(Cc3ccccc3C)c2=O)cc1OC`: the activation was inactive: -4.73%.

Turning to `Cc1cccc(C)c1OCc1nc2c3cnn(-c4cccc(F)c4)c3ncn2n1`, the activation was inactive: 11%.

`CCOC(=O)c1cc(S(=O)(=O)N2CCN(c3ccc(OC)cc3)CC2)[nH]n1`: the activation was inactive: -15.7%.

`Cc1ccc(C(=O)Nc2c(C(=O)NCc3ccc(Cl)cc3)sc3nc(C)cc(C)c23)cc1`: the activation was inactive: -18.9%.

For the compound `Cc1ccc(Nc2c(-c3ccc(N4CCOCC4)cc3)nc3ncccn23)cc1`, the activation is inactive: -18.7%.

`CCN1CCN(c2cc3c(cc2F)c(=O)c(C(=O)O)cn3C2CC2)CC1`: the activation is inactive: -4.45%.

`COc1cc(C2CC(=O)c3c([nH]c(C(=O)OC4CCCCC4)c3C)C2)cc(OC)c1OC` (stereo unspecified): the activation is inactive: 31.2%.

On to `Cc1ccc(CNC(=O)c2c3c(nc4ccccc24)C(=O)N(C2CCCCC2)C3)cc1`, for which the activation was inactive: -14.5%.

With `CCCCn1c2ccc(F)cc2c2nnc(SCCN(CC)CC)nc21`, the activation was inactive: 7.93%.

Turning to `COc1cccc(NC(=O)CSc2nc3ccccc3nc2N2CCOCC2)c1`, the activation is inactive: -34.6%.

For the compound `CCc1ccc(CN2C(=O)c3ccccc3C2C(=O)NCCc2ccc(OC)c(OC)c2)cc1` (stereo unspecified), the activation is inactive: -10.8%.

Consider `Cc1csc2nc(COC(=O)c3ccccc3NC(=O)c3ccc(F)cc3)cc(=O)n12`, for which the activation was inactive: -7.27%.

In the case of `COc1ccc(Cl)cc1NC(=O)CSc1nccn1Cc1ccco1`, the activation is inactive: -8.69%.

In the case of `Cc1ccccc1NC(=O)c1sc2nc3c(cc2c1N)CCCC3`, the activation was inactive: -17.8%.

Turning to `CCOc1cc2[nH]c(=O)n(Cc3ccc(C(=O)NCCN(CC)CC)cc3)c(=O)c2cc1OCC`, the activation is inactive: -8.14%.

Take `Cc1ccc(C)c(N2CCN(C(=O)c3ccc(CS(=O)(=O)c4ccc(Br)cc4)o3)CC2)c1`: the activation is inactive: -4.48%.

For the compound `COc1ccc(CC(=O)NCc2nc3cccnc3n2Cc2ccc(F)cc2)cc1OC`, the activation was inactive: -10.4%.

For the compound `COc1ccc(NC(=O)c2cc3c(=O)[nH]c4ccccc4c3n2C)cc1Cl`, the activation is inactive: 18.2%.

With `CCCN(C(=O)CCc1nc(-c2ccccc2F)no1)c1ccc(CC)cc1`, the activation is inactive: -14.7%.

For `COc1ccc(CNC(=O)Cn2c(SCC(=O)Nc3ccc(C)c(C)c3)nc3ccccc32)cc1`, the activation was inactive: -25.5%.

Consider `CSc1nc2sc3c(c2c(=O)n1-c1ccc(F)c(Cl)c1)CCN(C(C)=O)C3`, for which the activation is inactive: -25.5%.

As for `Cc1cc(C)cc(NC(=O)CSc2nc(-c3cccc(Cl)c3)nc3c2Cc2c(CO)cnc(C)c2O3)c1`, the activation is inactive: 21.4%.

As to `CCOc1ccc(-c2nc(SCC(=O)NCCOC)c(-c3ccc(OC)c(OC)c3)[nH]2)cc1`, the activation is inactive: -18.5%.

For `CCc1ccc(-n2nc(C)c3c(C(=O)Nc4cc(OC)cc(OC)c4)cc(C)nc32)cc1`, the activation was inactive: -20.9%.

In the case of `CCOC(=O)NC1(C(F)(F)F)NC(=O)N(c2ccc(C)c(C)c2)C1=O` (stereo unspecified), the activation was inactive: -6.64%.

`O=C(CSC1=Nc2ccccc2C2=NC(Cc3ccccc3)C(=O)N12)Nc1ccccc1F` (stereo unspecified): the activation is inactive: -18.6%.

As to `Cc1cc(C)cc(OCC(=O)Nc2ccc(S(=O)(=O)Nc3onc(C)c3C)cc2)c1`, the activation is inactive: 4.51%.

Take `COc1ccc(S(=O)(=O)NCCc2csc(-c3ccc(F)cc3)n2)cc1`: the activation was active: 60.3%.

In the case of `COc1ccc(-n2nc(C(=O)Nc3cccc(C(F)(F)F)c3)c3c4ccccc4n(C)c3c2=O)cc1`, the activation is inactive: -3.76%.

Take `Cc1nc(CC(=O)Nc2ccc(N(C)C)cc2)cs1`: the activation was inactive: -16.9%.

As to `Cc1nn(CC(=O)NCc2ccccc2Cl)c(=O)c2nn(-c3ccccc3)c(C)c12`, the activation is inactive: 5.25%.

Take `CCN1CCC[C@H]1CNC(=O)c1c(OC)ccc(Br)c1OC`: the activation was inactive: 4.71%.

`Cc1ccccc1NC(=O)CSC1=Nc2ccccc2C2=NC(CCC(=O)NCc3ccccc3)C(=O)N12` (stereo unspecified): the activation was inactive: -7.73%.

On to `CCN(CC)C(=O)c1sc2c(c1C)c(=O)n(-c1ccc(Cl)c(Cl)c1)c(=O)n2Cc1cc(=O)n2c(C)cccc2n1`, for which the activation is inactive: 1.39%.

For the compound `COC(=O)CN1C(=O)CSc2ccc(S(=O)(=O)N3CCOCC3)cc21`, the activation is inactive: -1.43%.

Consider `COC(=O)c1sccc1S(=O)(=O)N(CC(=O)NCc1ccc(C)cc1)c1ccc(Cl)cc1`, for which the activation was inactive: -9.25%.

As for `COc1ccc(C(=O)Nc2ccc3nc(SCC(=O)N4CCCc5ccccc54)sc3c2)cc1`, the activation was inactive: -14%.

On to `Cc1cc(C)cc(N2C(=O)N(CC(=O)c3ccc(Br)cc3)c3ccccc3S2(=O)=O)c1`, for which the activation was inactive: -31.8%.

Consider `COc1ccccc1CNC(=O)CN1C(=O)COc2ccc(S(=O)(=O)N3CCCCC3)cc21`, for which the activation is inactive: -24.7%.

As to `O=S(=O)(NCc1cccc(Br)c1)c1ccc(-c2cc(C(F)(F)F)on2)s1`, the activation is inactive: -8.96%.

Consider `Cc1ccc(-c2nc(C)c(CCNS(=O)(=O)c3ccccc3F)s2)cc1`, for which the activation was inactive: 48.2%.

With `CCCCn1cc(S(=O)(=O)c2ccc(OC)cc2)c(=O)c2cc(F)c(N3CCCC3)cc21`, the activation is inactive: -5.65%.

As for `COc1cc(NS(C)(=O)=O)ccc1Nc1c2ccccc2nc2ccccc12`, the activation is inactive: 5.29%.

As for `CCOc1ccc(NC(=O)Cn2cc(C(=O)c3ccc(C)c(C)c3)c(=O)c3cc4c(cc32)OCCO4)cc1`, the activation was inactive: 22.9%.

Turning to `CN1C(=O)C(C)(C)c2cc(S(=O)(=O)NCc3ccc(C(=O)Nc4ccc(Cl)cc4)cc3)ccc21`, the activation is inactive: 12.6%.

Take `Cc1cccc(NC(=O)N2CCC(CN3CCc4ccccc4C3)CC2)c1C`: the activation was inactive: -17%.

As to `COc1ccc(CNC(=O)c2cc3ccccn3n2)c(OC)c1`, the activation was inactive: -1.55%.

Turning to `CCCCN(CC)C(=O)Cn1c(=O)n(-c2ccc(OCC)cc2)c(=O)c2c3c(sc21)CCC3`, the activation was inactive: -12.3%.

Take `Cn1nc(C(=O)N2CCN(c3ccccc3)CC2)c2c1-c1ccccc1SC2`: the activation is inactive: 3.14%.

In the case of `CCCCOc1ccc(CNC(=O)Cn2ncn3c(cc4cc(F)ccc43)c2=O)cc1`, the activation is inactive: -0.392%.

With `O=C(c1ccc2c(c1)OCO2)c1cn(Cc2ccc(F)cc2)c2ccccc2c1=O`, the activation was inactive: -3.76%.

As to `Cc1ccc(C2CCN(C(=O)c3cnn(-c4ccccc4Cl)c3C3CCN(C(=O)OC(C)(C)C)CC3)C2)cc1` (stereo unspecified), the activation is inactive: -31.3%.

On to `COc1cc(OC)c(C2C=C(C(=O)O)Nc3ncnn32)cc1OC` (stereo unspecified), for which the activation was inactive: 20.8%.

Take `CCCOC(=O)c1c(NC(=O)c2nc3ncccn3n2)sc(C(=O)OCC)c1C`: the activation was inactive: 17.3%.

As for `CC(=O)c1cccc(-n2c(=O)c3c4c(sc3n(Cc3ccccc3Cl)c2=O)CN(C(C)=O)CC4)c1`, the activation was inactive: 1.85%.

For the compound `COc1ccccc1CNC(=O)c1cn(C)c2ccc(S(=O)(=O)N3CCC(C)CC3)cc2c1=O`, the activation was inactive: 7.3%.

Turning to `Cc1c(F)cccc1NC(=O)C1CCCN1S(=O)(=O)c1ccc(F)cc1` (stereo unspecified), the activation was inactive: 2.92%.

With `Cc1ccc2[nH]cc(C(c3ccccc3)c3cccs3)c2c1` (stereo unspecified), the activation is inactive: 10.6%.

As to `COc1cc(OC)c(NC(=O)c2ccc3nc(C(C)C)oc3c2)cc1Cl`, the activation was inactive: -7.31%.

As to `Cc1ccc(C(=O)Nc2cccc(C(=O)OCc3cc(=O)n4c5c(sc4n3)CCCC5)c2)cc1`, the activation is inactive: -20%.
